Marks after values point to notes of the source that are not given here.
Protocol: In the following, measurement of Log P values was performed according to EEC directive 79/831 Annex V.A8 by HPLC (High Performance Liquid Chromatography) on reversed phase columns with the following methods: • ^[a]
If more than one Log P value is available within the same method, all the values are given and separated by “+”.
Calibration was done with straight-chain alkan2-ones (with 3 to 16 carbon atoms) with known Log P values (measurement of Log P values using retention times with linear interpolation between successive alkanones). Lambda-max-values were determined using UV-spectra from 200 nm to 400 nm and the peak values of the chromatographic signals.

Structure (SMILES)	logP	Log P
CCn1nccc1-c1cc(F)ccc1Nc1nc2ccccc2nc1C [Example I-160]	3.08 ^[a]	
Cc1nc2c(F)c(F)ccc2cc1Cc1ccc(Cl)cc1-c1ccnn1C [Example I-350]		3.55 ^[a]
CCC1=NOC(c2ccccc2Nc2cc3ccc(F)c(F)c3nc2C)C1 (centres unmarked) [Example I-017]	3.50 ^[b]	
Cc1ccc(Nc2cnc3ccccc3c2C)c(-c2ccnn2C)c1F [Example I-197]	2.15 ^[a]	
Cc1nc2c(F)c(F)ccc2cc1Nc1ccccc1-c1ccn(C(C)(C)C)n1 [Example I-049]	5.39 ^[a]	
Cc1c(Nc2ccccc2-c2ccnn2CCc2ccccc2)cnc2ccccc12 [Example I-187]	2.85 ^[a]	
Cn1nccc1-c1cc(OC(F)(F)F)ccc1Nc1cnc2c(F)c(F)ccc2n1 [Example I-258]		3.80 ^[a]
CCn1nccc1-c1c(F)ccc(F)c1Nc1c[nH]c2c(F)c(F)ccc2c1=O [Example I-267]		2.20 ^[a]
Cc1nc2ccccc2cc1Nc1ccccc1-c1ccn(C)n1 [Example I-002]	2.01 ^[a]	
Fc1cccc2cc(Cc3ccccc3-c3ccnn3Cc3ccccc3)cnc12 [Example I-359]		3.65 ^[a]
Cc1ccc(Nc2nc3ccccc3nc2C)c(-c2c(Br)cnn2C)c1F [Example I-177]	3.50 ^[a]	
Cc1nc2c(F)c(F)ccc2cc1Nc1cccc(F)c1-c1cc(C(F)(F)F)nn1C(C)C [Example I-305]		4.76 ^[a]
Cc1nc2ccccc2cc1Nc1cccc(F)c1-c1ccn(C(C)(C)C)n1 [Example I-033]	3.39 ^[a]	
Cc1nc2c(F)c(F)ccc2cc1Nc1cccc(F)c1-c1cc(C(F)(F)F)nn1C [Example I-303]		3.94 ^[a]
COC(=O)c1ccnn1-c1c(F)cccc1Nc1cnc2ccccc2c1 [Example I-078]	2.33 ^[a]	
Cc1ccc(Nc2nc3ccccc3nc2C)c(-c2ccnn2C)c1 [Example I-223]	2.92 ^[a]	
CC(C)(C)n1nccc1-c1ccccc1Nc1cnc2ccccc2c1 [Example I-009]	3.19 ^[a]	
CCn1nccc1-c1cc(F)ccc1Nc1nc2ccc(F)c(F)c2nc1C [Example I-190]	3.40 ^[a]	
Cc1ccc(Nc2cnc3c(F)cccc3c2)c(-c2ccnn2C)c1 [Example I-231]	2.92 ^[a]	
Cn1ccnc1-c1ccccc1Cc1cnc2ccccc2c1 [Example I-073]	0.47 ^[a]	
c1ccc(-c2cc[nH]n2)c(Cc2cnc3ccccc3c2)c1 [Example I-126]	1.53 ^[a]	

Structure (SMILES)	logP	Log P
Cc1nc2ccccc2nc1Nc1ccc(F)cc1-c1ccnn1CCc1ccccc1 [Example I-161]	4.20 ^[a]	
CC1=NOC(C)(c2ccccc2Nc2cc3ccc(F)c(F)c3nc2C)C1 (centres unmarked) [Example I-022]	3.65 ^[b]	
CCn1nccc1-c1c(F)ccc(F)c1Nc1nc2ccccc2nc1CF [Example I-313]		2.96 ^[a]
CCn1ncc(Cl)c1-c1c(Nc2cnc3ccccc3c2Cl)ccc(F)c1F [Example I-316]		4.08 ^[a]
Fc1ccc(Cn2nccc2-c2ccccc2Cc2cnc3ccccc3c2)cc1 [Example I-179]	2.86 ^[a]	
CCn1ncc(F)c1-c1c(Nc2nc3ccccc3nc2C)ccc(F)c1F [Example I-319]		3.31 ^[a]
CCn1nccc1-c1c(Nc2cnc3c(F)cccc3c2)ccc(F)c1F [Example I-242]	2.98 ^[a]	
Cc1nc2c(F)c(F)ccc2cc1Cc1ccccc1-c1ccnn1C [Example I-290]		3.00 ^[a]
CC(C)n1nccc1-c1c(F)cccc1Nc1cnc2ccnn2c1 [Example I-106]	2.51 ^[a]	
Cc1nc2ccccc2cc1Nc1ccccc1-c1ccnn1C(C)(C)C [Example I-010]	2.58 ^[a]	
Cc1nc2ccccc2nc1Nc1ccccc1-c1ccnn1C [Example I-158]	2.57 ^[a]	
Cc1nc2c(F)c(F)ccc2cc1Cc1cccc(Cl)c1-c1ccnn1C [Example I-330]		3.31 ^[a]
CCn1ncc(F)c1-c1c(F)ccc(F)c1Nc1nc2ccccc2nc1C [Example I-311]		2.88 ^[a]
Cc1c(Nc2ccc(Cl)cc2-c2ccnn2C)cnc2ccccc12 [Example I-217]	2.30 ^[a]	
CCn1nccc1-c1cc(F)ccc1Nc1cnc2ccccc2c1C [Example I-170]	1.98 ^[a]	
Cn1nccc1-c1ccccc1Cc1cnc2c(F)c(F)ccc2c1 [Example I-355]		2.84 ^[a]
CCn1nccc1-c1c(Nc2cnc3c(F)c(F)ccc3c2)ccc(F)c1F [Example I-245]	3.28 ^[a]	
Fc1ccc(Nc2cnc3c(F)cccc3c2)c(-c2ccnn2CCc2ccccc2)c1 [Example I-182]	3.76 ^[a]	
CCn1nccc1-c1c(F)ccc(F)c1Nc1cnc2c(F)c(F)ccc2c1 [Example I-265]		2.98 ^[a]
Cc1nc2c(F)c(F)ccc2cc1Nc1ccccc1-c1ccn(C)n1 [Example I-048]	4.24 ^[a]	
CCn1nccc1-c1c(F)c(F)cc(F)c1Nc1cnc2ccccc2c1C [Example I-260]		1.98 ^[a]

Structure (SMILES)	logP	Log P
CCn1nccc1-c1c(F)ccc(F)c1Nc1cnc2c(F)c(F)ccc2c1F [Example I-264]		3.19 ^[a]
Cc1nc2c(F)c(F)ccc2cc1N(C)c1cccc(F)c1-c1ccn(C(C)C)n1 [Example I-047]	3.85 ^[a]	
CCn1nccc1-c1ccccc1Nc1nc2ccccc2nc1C [Example I-159]	3.06 ^[a]	
CC1=NOC(c2ccccc2Nc2cnc3c(F)cccc3c2)C1 (centres unmarked) [Example I-014]	2.64 ^[b]	
Cc1c(Nc2cccc(F)c2-c2ccnn2C)cnc2c(F)cccc12 [Example I-207]	2.80 ^[a]	
Cn1nccc1-c1ccccc1Cc1cnc2ccccc2c1C(F)F [Example I-200]	2.92 ^[a]	
CCn1nccc1-c1c(F)cccc1Nc1cnc2ccccc2c1C [Example I-090]	2.35 ^[a]	
Clc1cccc2cc(Cc3ccccc3-c3ccnn3Cc3ccccc3)cnc12 [Example I-341]		3.63 ^[a]
Cn1nccc1-c1ccccc1Cc1cc2ccccc2nc1C(F)F [Example I-201]	3.33 ^[a]	
Cc1nc2c(F)c(F)ccc2cc1Cc1ccccc1-c1ccnn1C(C)C [Example I-327]		3.76 ^[a]
CC1=NOC(C)(c2ccccc2Nc2cc3ccccc3nc2C)C1 (centres unmarked) [Example I-021]	3.12 ^[b]	
Cn1nccc1-c1c(Nc2cnc3c(F)c(F)ccc3c2)ccc(F)c1F [Example I-238]	3.01 ^[a]	
Cn1nccc1-c1c(F)cccc1Nc1cnc2ccccc2c1 [Example I-029]	2.26 ^[a]	
CC(C)(O)c1ccnn1-c1c(F)cccc1Nc1cnc2ccccc2c1 [Example I-077]	1.96 ^[a]	
Cn1nccc1-c1ccccc1Nc1cnc2ccccc2c1Cl [Example I-165]	2.86 ^[a]	
Cc1nc2ccccc2nc1Nc1ccccc1-c1ccnn1CCc1ccccc1 [Example I-171]	4.25 ^[a]	
Cn1nccc1-c1cc(F)ccc1Nc1cnc2ccccc2c1Cl [Example I-166]	2.90 ^[a]	
Cc1cc(C)c(Nc2cc3ccc(F)c(F)c3nc2C)c(-c2c(C)cnn2C)c1F [Example I-113]	3.59 ^[a]	
Cc1nc2c(F)c(F)ccc2cc1Nc1cccc(F)c1-c1ccnn1C(C)C [Example I-051]	3.94 ^[a]	
Fc1ccc(Nc2cnc3c(F)c(F)ccc3n2)c(-c2ccnn2CCc2ccccc2)c1 [Example I-188]	4.18 ^[a]	
CCC1=NOC(C)(c2ccccc2Nc2cc3ccc(F)c(F)c3nc2C)C1 (centres unmarked) [Example I-024]	4.03 ^[b]	

Structure (SMILES)	logP	Log P
Cc1ccc(Nc2cc3ccc(F)c(F)c3nc2C)c(-c2ccnn2C)c1 [Example I-229]	3.33 ^[a]	
Cc1ccc(Nc2c(C)nc3c(F)c(F)ccc3c2C)c(-c2ccnn2C)c1F [Example I-114]	3.72 ^[a]	
CCn1nccc1-c1ccccc1Cc1cnc2ccccc2c1 [Example I-072]	2.07 ^[a]	
Cc1ccc(Nc2cnc3c(C(F)(F)F)cccc3c2)c(-c2ccnn2C)c1 [Example I-221]	3.87 ^[a]	
CCn1nccc1-c1c(Nc2cnc3ccccc3c2Cl)ccc(F)c1F [Example I-246]	3.39 ^[a]	
Cc1c(Nc2ccc(F)cc2-c2ccnn2CCc2ccccc2)cnc2ccccc12 [Example I-186]	2.76 ^[a]	
CCCn1nccc1-c1cc(F)ccc1Nc1cc2ccc(F)c(F)c2nc1C [Example I-301]		3.59 ^[a]
CC1=NOC(c2c(F)cccc2Nc2cc3ccccc3nc2C)C1 (racemic) [Example I-035]	3.09 ^[b]	
Cc1ccc(Nc2cnc3c(F)c(F)ccc3c2)c(-c2ccnn2C)c1 [Example I-227]	3.21 ^[a]	
Cn1nccc1-c1c(Nc2cnc3ccnn3c2)ccc(F)c1F [Example I-239]	2.11 ^[a]	
Cc1nc2c(F)c(F)ccc2cc1Nc1cccc(F)c1-c1c(C)nn(C)c1C [Example I-284]		3.19 ^[a]
CCn1nccc1-c1ccccc1Cc1cc2ccc(F)c(F)c2nc1C [Example I-277]		3.33 ^[a]
Cc1nc2c(F)c(F)ccc2nc1Nc1ccc(OC(F)(F)F)cc1-c1ccnn1C [Example I-235]	3.96 ^[a]	
CC1(C)CC(c2ccccc2Nc2cnc3ccccc3c2)=NO1 [Example I-037]	3.42 ^[a]	
Cn1nccc1-c1cc(Cl)ccc1Nc1cnc2ccccc2c1Cl [Example I-219]	3.51 ^[a]	
CCn1nccc1-c1c(F)ccc(F)c1Nc1nc2ccccc2nc1C(F)F [Example I-329]		3.31 ^[a]
Cn1ccc(-c2ccccc2Nc2cnc3ccccc3c2)n1 [Example I-001]	2.70 ^[a]	
CCn1ncnc1-c1ccccc1Cc1cnc2ccccc2c1 [Example I-074]	1.51 ^[a]	
Cc1cccc2cc(Nc3ccc(F)cc3-c3cncn3C)cnc12 [Example I-248]	1.51 ^[a]	
CC(C)c1ncc(-c2ccccc2Nc2cnc3ccccc3c2)s1 [Example I-045]	4.31 ^[a]	

— US11457629B2, “Heteroarylphenylaminoquinolines and analogues” (Bayer Aktiengesellschaft, priority 2017, dated 2022)
